Reference: the supplement of paper PMC12645437, “Orthogonal IMiD-Degron Pairs Induce Selective Protein Degradation in Cells” (ACS Chemical Biology, 2025)
The list shows a part of the results.

molecular target: no compound (DMSO); assay: log2 fold change of degron read counts, EGFP-low vs EGFP+ sorted cells; higher = lower degron-EGFP level without compound (poor expression or instability); conditions: compound: DMSO control; 18 h
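Also: jurkat cells carrying a lentiviral library of mutant zinc finger degrons fused to EGFP plus mCherry, mCherry+ cells FACS sorted, degron abundance counted by next-generation sequencing.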

Row | Sequence | log2 fold change of degron read counts
1 | FICEQCGACFTQKGNLLRHIKL | -1.25
2 | FACNQCGHKFTQKGNLLRHIKL | 0.859
3 | FGCNQCGALFTQKGNLLRHIKL | 0.512
4 | FKCPICGHGFTQKGNLLRHIKL | -0.385
5 | FVCPICGRQFTQKGNLLRHIKL | -0.279
6 | LVCEICGFKCTQKGNLLRHIKL | -1.25
7 | FSCEQCGATFTQKGNLLRHIKL | -2.19
8 | FSCPICGRPFTQKGNLLRHIKL | 0.317
9 | FTCEVCGASFTQKGNLLRHIKL | -1.92
10 | FVCPQCGADFTQKGNLLRHIKL | -2.32
11 | FHCPQCGAEFTQKGNLLRHIKL | -1.47
12 | FGCNVCGADFTQKGNLLRHIKL | 0.0861
13 | FYCDVCGATFTQKGNLLRHIKL | -1.02
14 | LFCPICGFPCTQKGNLLRHIKL | 1.92
15 | LACEICGFQCTQKGNLLRHIKL | -0.796
16 | FCCEICGHFFTQKGNLLRHIKL | 0.0786

Row | Sequence | log2 fold change of degron read counts
17 | FLCEQCGAIFTQKGNLLRHIKL | -1.29
18 | FACDVCGAAFTQKGNLLRHIKL | -1.84
19 | LHCPICGFFCTQKGNLLRHIKL | 1.82
20 | FNCNVCGALFTQKGNLLRHIKL | -0.104
21 | FYCPVCGANFTQKGNLLRHIKL | -0.222
22 | FDCNVCGAPFTQKGNLLRHIKL | -0.129
23 | FWCDQCGAVFTQKGNLLRHIKL | 0.354
24 | FICEICGHDFTQKGNLLRHIKL | -2.06
25 | FICEICGAIFTQKGNLLRHIKL | -0.36
26 | FTCNVCGANFTQKGNLLRHIKL | -1.55
27 | LWCPICGFRCTQKGNLLRHIKL | 2.4
28 | FCCPICGHCFTQKGNLLRHIKL | 0.138
29 | LICPICGFCCTQKGNLLRHIKL | 1.27
30 | FRCEQCGACFTQKGNLLRHIKL | -1.46
31 | FMCNVCGAIFTQKGNLLRHIKL | 0.237
32 | FDCNQCGRFFTQKGNLLRHIKL | 1.5
